Assay results from PubChem BioAssay AID2101 (National Center for Advancing Translational Sciences (NCATS), 2009).
The whole screen tested about 330,000 compounds, of which about 300 (0.091%) were called active. This list was built around the results that the source calls inconclusive (neither active nor inactive); the mix of calls is not that of the screen. Calls follow the shape of the dose curve; as a rule, active = well fitted inhibition curve with a large enough effect; inconclusive = small, poorly fitted or top-dose-only effect, or effect the other way, or another doubt; inactive = no such curve, though single readings can be large or run the other way. No potency is given beside an inconclusive call; the fits are too rough.

Target: Lysosomal acid glucosylceramidase (Homo sapiens) (UniProt P04062)
Assay: qHTS Assay for Inhibitors and Activators of N370S glucocerebrosidase as a Potential Chaperone Treatment of Gaucher Disease;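 as to activity change, negative = inhibition: 0% = full enzyme activity and -100% = no enzyme basal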
Details: N370S GC spleen homogenate, 4MU-glucoside fluorescence; activity change, negative = inhibition: at 59.4 µM (top of the series) unless noted
Potency is read from the fitted curve at half-maximal effect.

Row | Structure (SMILES) | activity change, negative = inhibition | Potency
1 | Cc1cc(/C(N)=N/OC(=O)c2ccc(Cl)cc2)no1 | inactive: 1.62% | 
2 | COc1cccc(CN2CC34CCC(CC3S2(=O)=O)O4)c1 (centres undefined) |  | inconclusive [inhibitor, partial curve, poor fit]
3 | Cc1nc2cc3ccccc3cc2c(=O)[nH]1 |  | inconclusive [activator, partial curve]
4 | Cc1[nH]c2ccccc2c1/C=N/NC(=O)c1cccc([N+](=O)[O-])c1 |  | inconclusive [activator, single point]
5 | O=C(NCc1ccccc1)C1=C[C@@H](c2ccc(C(F)(F)F)cc2)C[C@@H](OCc2ccc(CO)cc2)O1 |  | inconclusive [activator, single point]
6 | CCC(NC(=O)CCCc1ccccc1)c1ccccc1 (centres undefined) |  | inconclusive [inhibitor, single point]
7 | COc1ncc2nc(-c3cccs3)c(=O)n(C)c2n1 |  | inconclusive [activator, partial curve]
8 | C=CCNC(=O)c1cc2c(=O)n3cccc(C)c3nc2s1 |  | inconclusive [activator, full curve]
9 | COC(=O)c1[nH]c2cccc(OC)c2c1NC(=O)CCN1CCC(C)CC1 | inactive: -8.34% | 
10 | S=c1[nH]nc(Nc2cccc(Cl)c2)s1 |  | inconclusive [inhibitor, single point]
11 | O=C(c1ccccc1)c1nn(-c2ccccc2)c(=O)cc1C(F)(F)F | inconclusive: 32% [activator] | 
12 | COc1cccc(NC(=O)C2C(c3ccccc3)C2(Cl)Cl)c1 (centres undefined) |  | inconclusive [activator, single point]
13 | CC(C)(C)OC(=O)[C@H](Cc1ccccc1)NC(=O)c1[nH]cnc1C(=O)Nc1ccc(Cl)cc1 |  | inconclusive [activator, partial curve]
14 | Cc1ccn(CCC(=O)Nc2ccc(-c3ccno3)cc2)n1 |  | inconclusive [inhibitor, single point]
15 | CCN(C(=O)Cn1c(=O)n(Cc2ccccc2)c(=O)c2ccccc21)c1cccc(C)c1 |  | inconclusive [inhibitor, full curve, poor fit]
16 | C#CCOc1c(Cl)cc(C2C3=C(CCCC3=O)N(CC(=O)O)C3=C2C(=O)CCC3)cc1OC |  | inconclusive [activator, partial curve]
17 | CN(C)c1ccc(/C=N/NC(=O)C(O)(c2ccccc2)c2ccccc2)o1 | inactive: -0.966% | 
18 | Cc1cccc(NC(=O)c2ccc(COc3ccc4ccccc4c3)o2)n1 |  | inconclusive [activator, partial curve]
19 | Cc1cccc(NC(=O)CCCN2C(=O)C3CC=CCC3C2=O)c1 (centres undefined) | inactive: 1.58% | 
20 | Cc1ccc(S(=O)(=O)Nc2ccc(C(=O)N3CCCC3)cc2)cc1 | inactive: -21.6% | 
21 | CC(C)C[C@H](NC(=O)c1nc[nH]c1C(=O)NCc1ccccc1)C(=O)OC(C)(C)C |  | inconclusive [activator, single point]
22 | O=[N+]([O-])c1cccc(-c2nc(NCc3ccccc3)c3ccccc3n2)c1 | inactive: 4.77% | 
23 | COc1ccc(C(c2nnnn2Cc2cccs2)N2CCN(c3ccccc3F)CC2)cc1OC (centres undefined) |  | inconclusive [inhibitor, full curve, poor fit]

Row | Structure (SMILES) | activity change, negative = inhibition | Potency
24 | CCCCCOc1ccc(C(O)C(CN2CCOCC2)c2ccccc2)cc1 (centres undefined) |  | inconclusive [inhibitor, partial curve]
25 | CC(=O)N1CCc2cc(S(=O)(=O)CCC(=O)Nc3c(C)n(C)n(-c4ccccc4)c3=O)ccc21 |  | inconclusive [inhibitor, full curve, poor fit]
26 | CC(C)(C)NC(=O)C(c1ccc(O)cc1)N(C(=O)CCC(=O)Nc1nccs1)c1ccccc1F (centres undefined) |  | inconclusive [inhibitor, single point]
27 | C=CCn1c(N)c(C(=O)NCC2CCCO2)c2nc3ccccc3nc21 (centres undefined) | inactive: -4.3% | 
28 | COc1cc(OC)cc(C2=Nn3c(nnc3-c3cccc(OC)c3)SC2)c1 | inactive: -3.55% | 
29 | O=C(CC(c1ccccc1)c1cc(Br)ccc1O)NCCN1CCOCC1 (centres undefined) | inactive: 6.25% | 
30 | O=C(NNC(=S)NC(=O)c1ccccc1[N+](=O)[O-])c1ccccc1O | inactive: -1.99% | 
31 | O=C(Nc1ccccc1)OCCCc1ccccc1 |  | inconclusive [inhibitor, single point]
32 | Oc1ccc(C2=NN(c3ccccc3)C(c3ccc(F)cc3)C2)cc1 (centres undefined) |  | inconclusive [activator, partial curve]
33 | CC(C)OCCCNC(=O)CN1C(=O)/C(=C/c2ccccc2)Sc2ccccc21 |  | inconclusive [activator, single point]
34 | CCCOc1cc(N(CC)CC)ccc1/C=C(/C#N)c1nc2ccc(C)cc2[nH]1 |  | inconclusive [activator, partial curve]
35 | O=C(/C=C/c1cccs1)c1ccc(NC(=O)c2cccc(Br)c2)cc1 | inactive: 6.11% | 
36 | COc1ccc2[nH]cc(CCNc3ncnc4ccc(-c5ccc6c(c5)OCO6)cc34)c2c1 |  | inconclusive [inhibitor, single point]
37 | COc1cccc(-c2cc3nc(-c4ccccc4)cc(N4CCC5(CC4)OCCO5)n3n2)c1 | inactive: 17% | 
38 | Cc1cc(C(=O)CSc2ncccn2)c(C)n1Cc1ccco1 |  | inconclusive [activator, single point]
39 | COc1ccc(-c2ccc(F)cc2)cc1[C@H]1[C@H]2C=CC[C@@H](C)[C@@H]2C(=O)N1Cc1ccccc1 |  | inconclusive [activator, partial curve]
40 | Cc1cccc2c1OCC/C2=N\NC(=O)COc1ccccc1 | inactive: -0.671% | 
41 | CN(C)c1ccc(C(=O)C(=O)c2ccccc2)cc1 |  | inconclusive [activator, full curve]
42 | Cc1cccc(Nc2nc(-c3ccc(O)cc3O)cs2)n1 | inactive: -0.806% | 
43 | CC(C)Oc1ccc(C(CCNCc2ccc(O)cc2)c2ccccc2)cc1 (centres undefined) |  | inconclusive [inhibitor, partial curve]
44 | CS(=O)(=O)N(Cc1ccc(C(=O)NC2CCCC2)cc1)c1ccccc1 |  | inconclusive [activator, partial curve]
45 | COc1ccc(-c2cc(-c3ccccc3O)[nH]n2)cc1OC | inactive: 6.41% | 
46 | Cc1ccc(NC(=O)C(c2ccccc2)c2ccccc2)c(O)c1 |  | inconclusive [activator, single point]

Row | Structure (SMILES) | activity change, negative = inhibition | Potency
47 | S=C(Nc1cccc(Cl)c1)Nc1cccc2cnccc12 | inconclusive: 27.6% [activator] | 
48 | NCCCn1c(C(=O)c2cc(Cl)c(N)c(Cl)c2)c2ccc(C(F)(F)F)cc2[n+]1[O-] |  | inconclusive [inhibitor, partial curve]
49 | O=C(/C=C/c1ccccc1)/C=C/c1ccccc1 |  | inconclusive [activator, single point]
50 | CCOc1cc(C)c(Cl)cc1S(=O)(=O)n1cnc2ccccc21 |  | inconclusive [activator, partial curve]
51 | CN(C)CCn1cnc2c(c1=N)C(c1ccccc1)c1ccc3ccccc3c1O2 (centres undefined) |  | inconclusive [inhibitor, single point]
52 | Cc1cc(C=O)c(C)n1-c1cc(C(=O)O)cc(C(=O)O)c1 | inactive: -0.432% | 
53 | CC(=O)N/C(=C\c1ccccc1)C(=O)OCC(=O)Nc1cc(S(=O)(=O)N(C)C)ccc1C | inactive: -3.13% | 
54 | CCN1C(=O)[C@H]2[C@@H](c3ccc(-c4ccc(OC)cc4)cc3)N[C@@](CC(C)C)(C(=O)OC)[C@H]2C1=O |  | inconclusive [inhibitor, full curve, poor fit]
55 | Cc1ccc(SCC(=O)Nc2ccccc2C(=O)O)cc1 | inactive: -1.82% | 
56 | CC(C)CCNC(=O)c1cnn2c(C(F)(F)F)cc(-c3ccco3)nc12 |  | inconclusive [activator, full curve]
57 | COC(=O)c1ccc(-c2ccco2)n1Cc1ccccc1Cl | inactive: 11.9% | 
58 | Cc1onc(-c2ccccc2)c1C(=O)Nc1ccc(S(=O)(=O)N2CCCC2)cc1 | inactive: -7.79% | 
59 | CCC(C)n1c(-c2ccco2)nc2nc3ccccc3nc21 (centres undefined) |  | inconclusive [activator, single point]
60 | CN1CC(O)C2=CC(=O)C(=O)C=C21 (centres undefined) | inactive: -8.36% | 
61 | Cc1[nH]c2ccccc2c1/C=N/NC(=O)CNC(=O)c1ccc2c(c1)OCCO2 |  | inconclusive [activator, partial curve]
62 | CCOc1cc(CNCCc2ccc(S(N)(=O)=O)cc2)ccc1OCC(=O)NC1CCCCC1 |  | inconclusive [inhibitor, single point]
63 | COCCn1c(N)c(S(=O)(=O)c2cccs2)c2nc3ccccc3nc21 |  | inconclusive [activator, partial curve]
64 | CN(C)c1cccc(C(=O)Nc2cc(C(F)(F)F)ccc2-n2cnc3ccccc32)c1 |  | inconclusive [activator, partial curve]
65 | CCc1ccccc1NC(=S)NNC(=O)c1ccccc1Cl |  | inconclusive [activator, single point]
66 | COc1ccc(N2CCN(C(=O)CNC(=O)Cn3c(C)cc4ccccc4c3=O)CC2)cc1 |  | inconclusive [inhibitor, full curve, poor fit]
67 | CCc1ccc(OCC(=O)Nc2ccc3[nH]ncc3c2)cc1 | inactive: 3.78% | 
68 | COc1ccc(C(CNC(=O)c2ccc(S(=O)(=O)N3CCCC3)cc2)N2CCOCC2)cc1 (centres undefined) |  | inconclusive [inhibitor, full curve, poor fit]
69 | O=C(O)c1cccc(Nc2ccc3nonc3c2[N+](=O)[O-])c1 | inactive: -4.09% | 
